# Measured values published in PubChem BioAssay AID1468 (National Center for Advancing Translational Sciences (NCATS), 2008).
# Among all 280,000 compounds or so, about 1,100 (0.39%) were called active. Inconclusive results, whose numbers are uncertain, are shown with a selection of clear calls. Calls follow the shape of the dose curve; as a rule, active = well fitted inhibition curve with a large enough effect; inconclusive = small, poorly fitted or top-dose-only effect, or effect the other way; inactive = flat fitted curve, though single readings scatter. Potencies of inconclusive entries are left out as doubtful fits.
# Biological target: Microtubule-associated protein tau (Homo sapiens) (UniProt P10636)
# Assay: qHTS for Inhibitors of Tau Fibril Formation, Fluorescence Polarization; also: nearly all actives have a fitted effect of over 55% in size
# Conditions: K18 P301L tau heparin fibrillization, Alexa594 FP, 6 h; series mostly up to 57.7 µM; activity, negative = inhibition: at the top concentration
# Outline: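 Read-out: fluorescence polarization of Alexa 594-labeled tau (0.24 uM), 555 nm excitation, 632 nm emission. Mixtures held 15 uM unlabeled K18 P301L, compound and 20 uM heparin, pH 7 acetate buffer, incubated 6 hr at 37 C.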
# % is scaled to controls: 0 for no effect and ±100 for the full control effect; potency is read from the fitted curve at half-maximal effect; tags tell the direction and shape of the fitted curve.
# Sequence of UniProt P10636 (P10636 whole entry, looked up): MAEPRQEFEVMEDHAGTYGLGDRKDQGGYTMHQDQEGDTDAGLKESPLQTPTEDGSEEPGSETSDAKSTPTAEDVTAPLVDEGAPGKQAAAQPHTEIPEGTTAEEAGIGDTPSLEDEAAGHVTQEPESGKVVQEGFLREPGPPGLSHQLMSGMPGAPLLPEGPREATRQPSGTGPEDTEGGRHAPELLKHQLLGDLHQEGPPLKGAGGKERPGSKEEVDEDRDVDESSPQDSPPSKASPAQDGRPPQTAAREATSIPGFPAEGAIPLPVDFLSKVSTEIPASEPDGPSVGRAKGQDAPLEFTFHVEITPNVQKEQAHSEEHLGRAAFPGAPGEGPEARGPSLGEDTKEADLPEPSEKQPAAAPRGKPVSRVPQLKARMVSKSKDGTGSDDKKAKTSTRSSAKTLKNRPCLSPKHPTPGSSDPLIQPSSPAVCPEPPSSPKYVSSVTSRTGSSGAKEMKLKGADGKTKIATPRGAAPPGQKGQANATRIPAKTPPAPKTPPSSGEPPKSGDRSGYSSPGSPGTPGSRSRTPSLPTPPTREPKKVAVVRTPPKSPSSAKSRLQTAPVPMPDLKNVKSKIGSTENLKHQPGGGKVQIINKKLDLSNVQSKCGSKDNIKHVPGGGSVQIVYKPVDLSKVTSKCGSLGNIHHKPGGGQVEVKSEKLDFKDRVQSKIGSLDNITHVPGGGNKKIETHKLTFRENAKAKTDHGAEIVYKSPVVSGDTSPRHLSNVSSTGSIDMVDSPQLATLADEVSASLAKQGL
SMILES,Potency,"activity, negative = inhibition"
Cc1ccc(S(=O)(=O)CC(=O)Nc2nc3c(C)cc(C)cc3s2)cc1,"inconclusive [inhibitor, partial curve]",
Cc1cccc(C(=O)Nc2nnc(S(=O)(=O)N(C)Cc3ccccc3)s2)c1,"inconclusive [inhibitor, partial curve, poor fit]",
O=[N+]([O-])c1ccccc1-c1ccc(C(=S)N2CCCC2)o1,"inconclusive [inhibitor, partial curve]",
O=C(CSc1nnc(-c2cccnc2)n1Cc1ccco1)c1ccc(Br)cc1,,inactive: 6.04%
O=S(=O)(c1cccc(Cl)c1)c1nnn2c1nc(NCc1ccc3c(c1)OCO3)c1sccc12,"inconclusive [inhibitor, partial curve]",
COc1cc(C(=O)Nc2c(C)cc(C)cc2C)c(-n2cnnn2)cc1OC,"inconclusive [inhibitor, single point]",
O=[N+]([O-])c1cccn2cc(-c3ccc(Br)cc3)nc12,,inactive: 9.78%
CCN(CC)S(=O)(=O)c1cccc(C(=O)Nc2ccccc2C(=O)Nc2ccc(Cl)cc2)c1,"inconclusive [inhibitor, partial curve]",
CCN1C(=O)C(CC(=O)Nc2ccc(F)cc2)N(Cc2ccc3c(c2)OCO3)C1=S (stereo not given),"inconclusive [inhibitor, single point]",
O=[N+]([O-])c1ccc(/C=N/Nc2nc(N3CCCCC3)nc(N3CCCCC3)n2)cc1,,inactive: 11%
CCOc1ccc(CN2CCN(Cc3[nH]c4ccc(OC)cc4c3C)CC2CCO)cc1 (stereo not given),"inconclusive [activator, single point]",
CCCCN(CCCNC(=O)c1cc(Nc2cccc(SC)c2)nc2ccccc12)Cc1ccccc1,"inconclusive [inhibitor, partial curve]",
CC1(C)CC(=O)C(=CN2CCN(C(=O)c3ccco3)CC2)C(=O)C1,"inconclusive [inhibitor, single point]",
Cc1ccc(-n2c(Cc3ccccc3)n[nH]c2=S)cc1,,inactive: -2.41%
CCc1cccc(NC(=O)Cn2c(C(=O)OC)cc3sc(Cl)cc32)c1,"inconclusive [inhibitor, partial curve]",
O=Nc1ccc2oc(=O)ccc2c1,"inconclusive [inhibitor, partial curve]",
CCCN(CC(=O)Nc1cccc(Br)c1)CC(=O)Nc1ccc(F)c(F)c1F,"inconclusive [inhibitor, full curve]",
CC(=O)NCCNC(=O)CCCn1c(=O)[nH]c2ccsc2c1=O,"inconclusive [inhibitor, full curve, poor fit]",
CCCCNC(=O)c1cccc(NC(=O)c2nsc3ccccc23)c1,,inactive: -6.09%
CCOC(=O)N1CCC(NC(=O)C2CCN(S(=O)(=O)c3c(C)noc3C)CC2)CC1,,inactive: 7.09%
O=C(N/N=C/c1cn(-c2ccccc2)nc1-c1cc2ccccc2o1)c1cccnc1,"inconclusive [inhibitor, partial curve]",
CCc1ccc(C2C(C(=O)Nc3ccccc3OC)=C(C)Nc3c(C(=O)Nc4ccc(C)cc4)cnn32)cc1 (stereo not given),"inconclusive [inhibitor, single point]",

SMILES,Potency,"activity, negative = inhibition"
CSc1nnc(-c2ccco2)c(-c2ccco2)n1,"inconclusive [inhibitor, partial curve]",
O=[N+]([O-])c1ccc(C2CCCC/C2=N/OCc2ccc(F)cc2)c([N+](=O)[O-])c1 (stereo not given),"inconclusive [activator, single point]",
Cn1nc(-c2ccccc2F)c2cc(C(=O)NCc3ccccc3Cl)sc21,"inconclusive [inhibitor, single point]",
COc1ccc(OC)c(NC(=O)c2oc(=O)c3ccccc3c2-c2ccccc2)c1,,inactive: -10.4%
COc1cc(/C=N/NC(=O)c2cccnc2)ccc1OS(=O)(=O)c1ccc(C)cc1,"inconclusive [inhibitor, partial curve]",
c1csc(-c2csc(-c3cccs3)n2)c1,"inconclusive [inhibitor, single point]",
O=C(NC(=S)Nc1ccc(NC(=O)c2cccs2)cc1)c1cc2ccccc2o1,"inconclusive [inhibitor, partial curve]",
CCOc1ccc(NC(=O)Cn2nnc(-c3ccccc3NC(=O)C3CC3)n2)cc1,"inconclusive [inhibitor, partial curve]",
COc1ccc(CS(=O)/C(Cl)=C(/Cl)C(=O)Nc2ccc(OC)nc2)cc1 (stereo not given),"inconclusive [inhibitor, full curve]",
COc1cc(NC(=O)c2cccc(Cl)c2Cl)ccc1NC(=O)c1cc2ccccc2o1,"inconclusive [inhibitor, partial curve]",
COc1ccc(-c2nc3ccccn3c2NCc2ccc3c(c2)OCO3)cc1,"inconclusive [inhibitor, single point]",
O=C(NC(CSCc1ccccc1)C(=O)N/N=C/c1ccc(O)cc1O)c1ccc([N+](=O)[O-])cc1 (stereo not given),"inconclusive [inhibitor, single point]",
COc1cccc(Cn2nc(SC)c(S(=O)(=O)c3ccccc3)c2N(C(C)=O)C(C)=O)c1,"inconclusive [inhibitor, partial curve]",
CN(C)/C=N/c1c(C#N)cnn1C,"inconclusive [inhibitor, full curve, poor fit]",
COC(=O)c1cn[nH]c1NC(=S)Nc1ccc(Cl)c(Cl)c1,"inconclusive [inhibitor, single point]",
CC(=O)/C(=N\Nc1ccccc1Cl)Sc1cccc2cccnc12,"inconclusive [activator, single point]",
O=C(Nc1ccc2[nH]c(=O)[nH]c2c1)Nc1ccc(F)cc1F,"inconclusive [inhibitor, single point]",
C[C@H](NC(=O)c1nc[nH]c1C(=O)N[C@@H](Cc1ccccc1)C(=O)OC(C)(C)C)c1ccccc1,"inconclusive [inhibitor, single point]",
CCN(C(=O)c1ccc2c(Cl)c3c(nc2c1)CCC3)c1ccc(C)c(C)c1,,inactive: 0.754%
COc1ccc(-n2c(SCC(=O)NCc3ccc(Cl)cc3)nc3ccsc3c2=O)cc1,"inconclusive [inhibitor, single point]",
COc1cccc(-n2c(=O)c3cc(OC)c(OC)cc3n(CC(=O)Nc3ccc(F)cc3)c2=O)c1,"inconclusive [inhibitor, single point]",
CC(C)n1c(-c2ccc(C(C)(C)C)cc2)n[nH]c1=S,,inactive: -4.25%

SMILES,Potency,"activity, negative = inhibition"
N#CC1=C(N)OC2=C(C(=O)CCC2)C1c1ccccc1 (stereo not given),,inactive: -2.46%
Cc1ccc(S(=O)(=O)NNC(=O)C(=O)NNc2ccccn2)cc1,"inconclusive [inhibitor, partial curve, poor fit]",
O=C(Nc1cccc(Cl)c1)Nc1nc(-c2ccc(Cl)cc2)cs1,"inconclusive [inhibitor, partial curve]",
O=C(O)c1ccccc1-c1ccc(/C=c2\sc3nc4cc(Br)cnc4n3c2=O)o1,"inconclusive [inhibitor, single point]",
Cc1cc(C)c2c(n1)sc1c(N3CCCCC3)ncnc12,"inconclusive [activator, partial curve]",
Cc1cc2c(n1-c1ccc(C(=O)NCCc3ccc(Cl)cc3)cc1)CCCC2,"inconclusive [inhibitor, single point]",
CC(C)C(=O)Nc1nnc2n1CCS2,,inactive: 1.57%
CC1CCCCN1C(=O)C1CC(c2ccc(F)cc2)=NO1 (stereo not given),,inactive: -3.03%
Cc1ccc(-n2nnnc2SCc2nc3sc(C)c(C)c3c(=O)[nH]2)cc1,"inconclusive [inhibitor, partial curve]",
CCC1=NN2C(=N)/C(=C\c3cccn3-c3c(C)cccc3C)C(=O)N=C2S1,,inactive: 11.8%
COc1ccc(NC(=O)Cn2cc(S(=O)(=O)N3CCN(c4ccccc4F)CC3)c3ccccc3c2=O)cc1Cl,active: 12.6 µM,
Cc1ccc(Nc2nc3nonc3nc2Nc2cccc(C(F)(F)F)c2)cc1Cl,"inconclusive [inhibitor, full curve]",
CCCSc1nc(N)c2c3c(sc2n1)CN(C)CC3,,inactive: -6.54%
CC(C)C[C@@H](CC(=O)N[C@H](CC(=O)N[C@@H]1CCNC[C@H]1C(=O)N[C@H](CC(=O)N[C@@H](CCC(=O)O)CC(=O)O)Cc1ccccc1)C(C)C)NC(=O)[C@@H]1CNCC[C@H]1N,,inactive: 4.56%
COc1cccc(CNC(=O)C2CCC(CNS(=O)(=O)c3ccc4c(c3)CCCC(=O)N4)CC2)c1 (stereo not given),,inactive: -5.29%
Cc1ccc(NC(=O)CSc2nnc3scc(-c4ccc(Cl)cc4)n23)cc1,"inconclusive [inhibitor, partial curve]",
CC(OC(=O)c1ccccc1Oc1ccccc1)C(=O)NC1CC1 (stereo not given),"inconclusive [inhibitor, partial curve, poor fit]",
CCc1ccc(C(=O)c2cn(CC(=O)Nc3ccc4c(c3)OCO4)c3ccc(CC)cc3c2=O)cc1,,inactive: 5.56%
COc1cc2[nH]cc(C(=O)NCCc3ccccc3)c(=O)c2cc1OC,"inconclusive [inhibitor, full curve]",
Cn1c(=O)cc(SCC(=O)NCCCN2CCN(c3ccc(F)cc3)CC2)c2ccccc21,"inconclusive [inhibitor, single point]",
CN(C(=O)COC(=O)c1cc(-c2ccc(Cl)s2)nc2ccccc12)C1CCS(=O)(=O)C1 (stereo not given),"inconclusive [inhibitor, partial curve]",
